In PubChem BioAssay AID2451 (National Center for Advancing Translational Sciences (NCATS), 2010):
Values joined by “and” are separate entries in the source; they are usually repeats but may differ in a detail not shown here. Equal values may be shown once. In all, about 290,000 compounds went through this assay and about 2,100 (0.72%) were called active. Inconclusive means that the source gave no clear call. Such entries were picked first, then a sample of the others. Calls come from the whole dose curve; as a rule, active = well fitted inhibition curve with a large enough effect; inconclusive = small, poorly fitted or top-dose-only effect, or effect the other way; inactive = flat fitted curve, though single readings scatter. Potencies beside an inconclusive call are fits to weak or partial responses and may not hold up.

Target: Fructose-bisphosphate aldolase (Giardia intestinalis (strain ATCC 50803 / WB clone C6)) (UniProt A8B2U2)
Chain of UniProt A8B2U2 (A8B2U2 whole entry, looked up): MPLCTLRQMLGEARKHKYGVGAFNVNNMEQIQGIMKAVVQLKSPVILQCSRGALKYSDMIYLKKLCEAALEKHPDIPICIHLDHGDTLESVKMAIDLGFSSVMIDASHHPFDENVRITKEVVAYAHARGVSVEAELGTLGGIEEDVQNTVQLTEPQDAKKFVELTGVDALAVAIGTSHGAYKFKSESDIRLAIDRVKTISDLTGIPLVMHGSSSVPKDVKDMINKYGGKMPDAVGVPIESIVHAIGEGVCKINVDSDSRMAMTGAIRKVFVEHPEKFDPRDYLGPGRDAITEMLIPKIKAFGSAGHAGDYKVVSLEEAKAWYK
Assay: qHTS Assay for Inhibitors of Fructose-1,6-bisphosphate Aldolase from Giardia Lamblia; note: nearly all actives have a fitted effect of over 55% in size
Conditions: purified Giardia FBPA; series mostly up to 59.6 µM
Outline: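 Giardia FBPA (40 nM reagent) was preincubated 10 min at RT with compound (up to 57.5 uM final), then substrate plus GAPDH/TPI/NAD/arsenate coupling system with diaphorase/resazurin was added; resorufin fluorescence (525/598 nm) was read after 20 min.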
Potency is the fitted concentration of half-maximal effect; tags give direction and shape of the fitted curve.

SMILES	Potency
CCOC(=O)C1(C)C=C(Nc2ccc(O)cc2)C(=O)N1c1ccc(O)cc1 (stereo unspecified)	inconclusive: 12.6 µM [inhibitor, partial curve]
COc1ccc(NC(=O)c2ccc(CN3CCc4ccccc4C3)cc2)cc1OC	inactive
C[C@H](N)[C@H](O)c1ccc(O)c(O)c1	active: 7.06 µM
O=C(Nc1cccc(C(=O)O)c1)/C(=C\c1ccc2c(c1)OCO2)NC(=O)c1ccc(Br)cc1	inconclusive: 12.6 µM [activator, partial curve]
CCN(CC)CCOC(=O)c1ccc(N)cc1	inconclusive: 14.1 µM [inhibitor, single point]
COc1ccccc1-c1ccc2ncnc(N3CCNCC3)c2c1	inactive
COCCN1C=C2C(=O)C(C)(OC(=O)C3CCCC3)C(=O)C=C2C=C1c1ccsc1 (stereo unspecified)	inconclusive: 199 nM [inhibitor, full curve] and inconclusive: 500 nM [inhibitor, full curve]
Cc1c(NC(=O)CNCc2ccc3c(c2)OCO3)c(=O)n(-c2ccccc2)n1C	inconclusive: 19.9 µM [inhibitor, partial curve]
COc1ccc(C)cc1NC(=O)C1CCN(S(=O)(=O)c2cccc3cccnc23)CC1	inactive
Cc1ccc(N2C(=O)CC(Sc3ncn[nH]3)C2=O)cc1C (stereo unspecified)	active: 17.7 µM
COc1cc(OC)c(OC)cc1CNCc1ccc2c(c1)OCO2	inconclusive: 22.4 µM [inhibitor, partial curve]
COc1ccc(-n2c(COc3ccccc3)n[nH]c2=S)cc1	inconclusive: 8.91 µM [activator, partial curve]
COC(=O)CN1C(=O)N/C(=C/c2ccc(C)o2)C1=O	inconclusive: 22.3 µM [inhibitor, single point]
CN(Cc1ccco1)c1ccnc(-c2cccc(C#N)c2)n1	inactive
COc1ccc2nc(NS(=O)(=O)c3ccc(NC(C)=O)cc3)sc2c1	inactive
COc1ccc(S(=O)(=O)Nc2cc(SCC(=O)O)c(O)c3ccccc23)cc1	active: 7.94 µM
Cc1ccc(C(=O)CC(=O)c2ccccc2C)c(O)c1	inactive
O=C(N/N=C/c1cc([N+](=O)[O-])ccc1O)C(O)(c1ccccc1)c1ccccc1	inconclusive: 39.8 µM [activator, single point]
Nc1nc(-c2cccc(Br)c2)cs1	inactive
CCOC(=O)C1CCN(Cc2cccc(Oc3ccccc3)c2)CC1	inconclusive: 31.6 µM [inhibitor, partial curve]
COC(=O)CCC(=O)OC1(C)C(=O)C=C2C=C(C3CC3)N(CCc3ccccn3)C=C2C1=O (stereo unspecified)	inconclusive: 397 nM [inhibitor, full curve] and inconclusive: 316 nM [inhibitor, partial curve]
CCN(CC)S(=O)(=O)c1cccc(N=Nc2c(O)c3ccccc3oc2=O)c1	inconclusive: 17.7 µM [inhibitor, single point]
COc1ccc(NS(=O)(=O)c2cc(NC(=O)/C=C/c3ccccc3OC)ccc2N2CCCCC2)cc1	inactive
Cc1cc(N)n2nc(-c3ccccc3)cc2n1	inactive

SMILES	Potency
CC(Oc1ccc2ccccc2c1)C(=O)NNC(=S)NC(=O)c1ccco1 (stereo unspecified)	inconclusive: 17.7 µM [activator, partial curve]
c1ccc2c(OCCCCN3CCOCC3)cccc2c1	inconclusive: 14.1 µM [inhibitor, partial curve]
CCc1ccc(NC(=S)NNC(=O)c2ccccc2OC(F)F)cc1	inconclusive: 19.9 µM [activator, single point]
COc1cc2nc(N3CCN(C(=O)[C@@H]4CCCO4)CC3)nc(N)c2cc1OC	inconclusive: 5.01 µM [inhibitor, full curve, poor fit]
CC(CCc1ccc(O)cc1)NC(c1ccccc1)c1ccc(Cl)cc1 (stereo unspecified)	inconclusive: 39.8 µM [inhibitor, single point]
COCC(=O)Nc1sc2c(c1C(=O)OC)CCCC2	inactive
CC(=O)N(CCC(c1ccco1)C(C)C)Cc1ccc(Cl)cc1 (stereo unspecified)	inactive
Cc1c(N2CCCC2)cc2c(c1N)C(C)(C)CC2(C)C	inconclusive: 1.78 µM [inhibitor, full curve]
O=C(NC1(O)C(=O)c2ccccc2C1=O)c1ccccc1	inconclusive: 15.8 µM [inhibitor, partial curve]
Cc1c(N/N=C(\C#N)C(=O)c2ccc(Cl)cc2)c(=O)n(-c2ccccc2)n1C	inconclusive: 44.6 µM [inhibitor, single point]
CSc1ccc(CN2CCSCC2)cc1	inconclusive: 31.6 µM [inhibitor, single point]
O=C1CCC/C(=N/Nc2ccc(Cl)cc2)C1	inconclusive: 7.06 µM [inhibitor, partial curve]
COc1ccccc1-n1c(CNC(=O)c2ccco2)n[nH]c1=S	active: 11.2 µM
Cc1ccc(/C=N/OC(=O)c2nn(C)cc2Cl)cc1	inactive
Cc1nc2c(cc(Oc3ccc(S(=O)(=O)N4CCOCC4)cn3)c3ccsc32)s1	inconclusive: 19.9 µM [inhibitor, partial curve]
COc1cc2c(cc1OC)-c1c(OC)c(OC)c(OC)c3ccnc(c13)C2=O	inconclusive: 19.9 µM [inhibitor, partial curve]
Cc1n[nH]c(=O)nc1N/N=C/c1ccco1	inconclusive: 19.9 µM [inhibitor, single point]
COCc1[nH]nc2c1C(c1c(F)cccc1Cl)C(C#N)=C(N)O2 (stereo unspecified)	inconclusive: 12.6 µM [inhibitor, partial curve]
CCOC(=O)Cc1csc(NC(=S)NC(=O)c2ccc(F)cc2)n1	active: 7.92 µM
O=C(CCCn1c(=S)[nH]c2ccc(Br)cc2c1=O)NCC1CCCO1 (stereo unspecified)	inconclusive: 44.6 µM [inhibitor, single point]
Oc1ccc(C2=Nn3c(nnc3-c3ccco3)SC2)cc1O	inconclusive: 1.58 µM [inhibitor, full curve]
CC(=O)c1sc2nsc(SCCN3CCCC3)c2c1N	inactive
Cc1ccc(/C=C/C(=O)O)cc1S(=O)(=O)N1CCC(Cc2ccccc2)CC1	inconclusive: 17.7 µM [activator, single point]
O=C(Nc1cccc(Cl)c1)c1ccc2c(c1)SC1=NS(=O)(=O)CCN12	inactive

SMILES	Potency
NNC(=S)NCc1cccnc1	inconclusive: 17.7 µM [inhibitor, partial curve]
c1ccc(-c2csc(-n3cccn3)n2)cc1	inactive
Clc1ccc(-n2nnnc2-c2cnc3ccc(Cl)cc3c2-c2ccccc2)cc1	inactive
CC(=O)c1cccc(NC(=O)CN(C)Cc2ccc(OC(F)F)cc2)c1	inconclusive: 17.7 µM [inhibitor, partial curve]
O=C(NC(=S)Nc1ccc(S(=O)(=O)N2CCCCC2)cc1)c1cccs1	inconclusive: 2.81 µM [inhibitor, full curve, poor fit]
NC(=O)c1ccccc1NC(=O)CSc1nc2c(c(=O)[nH]1)CCCC2	inconclusive: 14.1 µM [inhibitor, partial curve]
COc1ccc(C(=O)N2CCN(S(=O)(=O)c3ccc(F)cc3)CC2)cc1OC	inconclusive: 15.8 µM [inhibitor, single point]
CC1(OC(=O)C2CCCC2)C(=O)C=C2C=C(c3ccsc3)N(C(CO)CO)C=C2C1=O (stereo unspecified)	inconclusive: 126 nM [inhibitor, full curve] and inconclusive: 500 nM [inhibitor, partial curve]
COc1cc(CNc2ccc(C)c(C)c2)cc(OC)c1OC	inconclusive: 5 µM [inhibitor, full curve]
COc1ccc2c(c1)C(=O)/C(=C/C=C/c1ccccc1)CC2	inconclusive: 39.7 µM [inhibitor, single point]
COc1cccc(C2=CC(c3ccccc3)n3ncnc3N2)c1 (stereo unspecified)	inactive
COc1ccc(N2C(=O)NC3CC2(C)Oc2ccccc23)cc1OC (stereo unspecified)	inactive
COc1ccc(C(=O)c2ccc(N3CCN(C(=O)c4ccc(F)cc4)CC3)c(F)c2)cc1Br	inactive
COc1ccc(CN2CCN(C(=O)CC(C)C)CC2)cc1OC	inconclusive: 5 µM [inhibitor, partial curve]
CCOC(=O)c1sc(NC(=O)CN2CCN(c3ccccc3)CC2)nc1C	inconclusive: 12.6 µM [inhibitor, partial curve]
Cc1ccc(-n2c(C)c3c(C)nnc(C)c3c2C)cc1N	inconclusive: 15.8 µM [inhibitor, partial curve]
O=S1(=O)CC=C(CSC(=S)NC2CCS(=O)(=O)C2)C1 (stereo unspecified)	inconclusive: 44.6 µM [inhibitor, single point]
Cc1[nH]c2ccccc2c1C(=O)C(C)OC(=O)c1ccc([N+](=O)[O-])o1 (stereo unspecified)	inconclusive: 17.7 µM [inhibitor, single point]
Cc1cccc(C)c1NC(=S)NCCc1ccc(O)c(O)c1	inconclusive: 15.8 µM [inhibitor, single point]
CC1(C)CNc2cc(N)ccc2S1	inconclusive: 12.6 µM [inhibitor, partial curve]
Cc1nnc(SCC(=O)NNC(=O)CC#N)[nH]c1=O	inconclusive: 15.8 µM [inhibitor, single point]
COc1ccc(C(C)C)cc1S(=O)(=O)Nc1ncn[nH]1	inconclusive: 14.1 µM [inhibitor, partial curve]
Cc1nc2ccc(NC(=S)N3CCOCC3)cc2nc1C	inconclusive: 12.6 µM [inhibitor, partial curve]
